# Test results published in the supplement of paper PMC3334620.
# Over roughly 33,000 sequences, “E-score (-0.5 to 0.5)” has its median near -0.032; the highest 2% begin near 0.36. The list shows a part of the results.
# Biological target: T1, Sko1 (UniProt Q02100)
# T1 sequence: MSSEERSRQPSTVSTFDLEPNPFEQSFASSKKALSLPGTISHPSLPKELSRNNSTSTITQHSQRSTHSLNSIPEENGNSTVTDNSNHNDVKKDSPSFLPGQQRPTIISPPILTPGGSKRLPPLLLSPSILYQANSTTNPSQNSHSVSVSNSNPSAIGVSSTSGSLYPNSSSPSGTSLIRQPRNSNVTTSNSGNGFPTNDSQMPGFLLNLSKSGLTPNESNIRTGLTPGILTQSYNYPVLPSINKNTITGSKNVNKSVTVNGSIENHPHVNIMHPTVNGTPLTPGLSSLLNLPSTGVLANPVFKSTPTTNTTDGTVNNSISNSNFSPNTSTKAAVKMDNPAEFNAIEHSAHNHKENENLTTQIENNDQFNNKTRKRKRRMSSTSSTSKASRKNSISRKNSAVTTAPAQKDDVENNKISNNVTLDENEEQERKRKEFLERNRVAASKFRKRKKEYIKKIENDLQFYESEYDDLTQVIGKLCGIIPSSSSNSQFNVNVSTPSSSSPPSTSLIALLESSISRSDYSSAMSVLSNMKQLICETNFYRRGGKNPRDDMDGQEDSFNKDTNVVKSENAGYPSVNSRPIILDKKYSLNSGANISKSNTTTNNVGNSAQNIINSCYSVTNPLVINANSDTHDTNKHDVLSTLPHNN
# Experiment: PBM E-score (8-mer binding enrichment) (E-score (-0.5 to 0.5)); higher = stronger / more preferred TF binding; most listed sequences are background and not binding sites
# Details: protein concentration: 200 nM; construct: GST-full length
# Method: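 Universal 'all 10-mer' protein binding microarrays (Agilent AMADID 015681) probed with GST-tagged S. cerevisiae TFs (full-length or DBD) made by in vitro transcription/translation (PURExpress), about 100-200 nM. Bound TF was detected with fluorescent anti-GST. Each ungapped 8-mer (which stands for itself and its reverse complement) is scored by the PBM enrichment score (E-score), a modified Wilcoxon-Mann-Whitney statistic from -0.5 to +0.5, computed with the Universal PBM Analysis Suite. Scale: above 0.35 generally sequence-specific binding.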
row,Sequence,PBM E-score
1,AGGACACT,-0.228
2,GACGAGAA,0.191
3,GGCGCACA,-0.175
4,AGAAAAGC,-0.032
5,CGTAAAGC,0.242
6,TAATATCA,0.276
7,TTGGGAAA,0.0975
8,CTCATCCA,0.0808
9,ATCTTACA,0.081
10,CCCGGTAG,-0.154
11,CGGGTTAC,0.0485
12,ACTTTGCT,0.0126
13,GCGGATTA,0.0702
14,GCTGCAGC,-0.149
15,TAAGGTAA,0.107
16,ATCATTCA,0.252
17,AACGGATC,0.0398
18,CGATTAGC,-0.019
19,CGCTAGAG,-0.107
20,CTTCAGGC,-0.173
21,ACCCCTTA,-0.111
22,GGAACGAA,-0.00675
23,GTGTAAGA,0.0148
24,CTACCGTC,-0.163
25,CTAGAGAG,-0.253

row,Sequence,PBM E-score
1,GAGGTGTA,-0.117
2,CAAGGGTG,0.00919
3,GCTTCGAA,-0.0594
4,ATATGTGG,0.141
5,CTGCGCGA,-0.0439
6,AGACAACT,-0.00069
7,GCCTTTAA,-0.00961
8,AATTCGGC,-0.315
9,CGTCATAC,0.486
10,GAGAGAGA,-0.0195
11,AACGGTAT,0.051
12,CGCGGATC,-0.0369
13,CGCACAGC,-0.233
14,GCCCCTCC,-0.221
15,AATGGGTA,0.199
16,AGGACTTA,-0.0304
17,CCTGCATA,-0.204
18,CCCAGTAC,-0.186
19,AGTTCCCC,-0.139
20,AAGTAAGG,0.127
21,TACTCGAA,0.164
22,AAAGCATC,-0.0705
23,GTGATCAC,0.025
24,ATGGGGAA,-0.0964
25,AATCGACC,-0.0464

row,Sequence,PBM E-score
1,AAGGGGGC,-0.294
2,AGTGAAGC,-0.00277
3,GGTAAACA,0.136
4,AGCTGAAC,-0.23
5,AAATCTGG,-0.131
6,ACTGTGGG,-0.0973
7,ATATAATG,0.105
8,CGTAGATA,0.305
9,CCGGGCAA,-0.329
10,AGATTGCA,-0.0307
11,GCGACACA,-0.0306
12,ATCGTAGG,0.119
13,CACCAGTC,-0.164
14,GGGAGACA,-0.191
15,AATGTGCC,-0.201
16,GCGTTACC,-0.169
17,CCGCGAGC,-0.239
18,GTGTCGCA,0.0574
19,GAGTAGCC,-0.125
20,TCCTTTAA,-0.0526
21,CCCGCGTC,0.0324
22,CGAGTGAC,-0.0304
23,TCCGATCA,-0.128
24,GTCAGTGA,0.178
25,ACGACGGC,0.0388

row,Sequence,PBM E-score
1,CACTACGG,-0.0887
2,ACATATAT,0.271
3,ACTTTGCC,-0.138
4,AGTGACGG,0.146
5,ATTGGACG,0.114
6,GTATATAA,0.258
7,AGAGAAAA,0.0565
8,CCCTTTGC,-0.0437
9,ATTTCGGC,-0.0959
10,CAGCTGCC,-0.28
11,AGTGTTTA,0.178
12,AGCCAAGA,0.0413
13,ACAATCCA,0.157
14,AACTTAGC,0.0908
15,AGATAAAG,0.0246
16,ATGACTCG,0.0504
17,ACACGAGC,-0.188
18,ATTTAAAT,0.177
19,GGATTGCC,-0.121
20,CAAGCATG,0.0857
21,AATCGGGC,-0.105
22,ACCTTAAT,0.114
23,CAATTCAA,0.0751
24,CTAACGGC,-0.11
25,CATTCGCG,0.147

row,Sequence,PBM E-score
1,CGACGGGC,0.0654
2,AGTTGGCA,-0.0505
3,ACTTCACT,-0.113
4,ATTTAAAG,0.0498
5,AATAAGGA,-0.158
6,GTGATAGA,0.111
7,GCAATGAA,0.128
8,GCGGAAGC,-0.13
9,CTGGGACC,-0.153
10,CCGCGATC,-0.118
11,CTGCTCAA,-0.157
12,AACCATAG,-0.139
13,ACTGTGAC,0.151
14,GGCAAGCA,-0.125
15,CATTCCAC,0.00783
16,AACTCCAG,-0.205
17,GGCTTAGA,-0.178
18,ACAGTCGG,-0.107
19,CTTAGTTA,-0.0251
20,GGATGACA,0.147
21,ATCCAAGG,-0.146
22,TAACACGA,0.217
23,AGTCCTAA,-0.0224
24,TGGACTAA,-0.0408
25,ACACACGT,0.433

row,Sequence,PBM E-score
1,AGCAAAAA,0.192
2,CTTCCGTA,0.0767
3,ACGTAATC,0.492
4,ACTATCGG,-0.148
5,CAATGTCA,0.182
6,CCGAGGCG,-0.274
7,TCACGGCA,-0.0122
8,ACTCTGTG,-0.254
9,CCACATCA,0.175
10,ATGGATTC,-0.0896
11,AACCCCGG,-0.229
12,ACCCCTGA,-0.165
13,CGGTGCCC,-0.159
14,AATTGAGT,0.0639
15,CTGTAACA,-0.231
16,AAAAAAGT,0.12
17,AAGGTCAT,0.00907
18,GAATGGCC,-0.181
19,CTCCGGTC,-0.346
20,CATCGAGC,-0.235
21,CAGTCGTC,0.0351
22,CCTCCTGA,-0.0476
23,CTACTTAA,0.0276
24,CATTCAAG,-0.142
25,CCTCCGTA,-0.171

row,Sequence,PBM E-score
1,AGTCCTAG,-0.248
2,GAGTATGC,0.0286
3,GGCTCACA,-0.118
4,GACACGTA,0.44
5,AAGGACCG,-0.122
6,AGCGTCTC,-0.282
7,CAGCGTAG,-0.0288
8,CATGTCGG,-0.103
9,ACTTGACC,-0.156
10,ACCGTGAC,0.126
11,CGTGGTAC,0.213
12,TCCATACA,0.0575
13,AAAAATGG,0.0332
14,TATTTCCA,0.066
15,CTATAGCA,-0.0339
16,AGGAGAGC,-0.197
17,AAGCGTTG,-0.0657
18,AGAAGACA,0.124
19,CGGAGCCC,-0.374
20,ATACAGTA,0.204
21,CCGGGCAG,-0.321
22,CAGCCGCG,-0.14
